Results reported in the RNAGym collection of RNA variant scans (doi:10.7554/elife.90254).
Read counts are not given, so values of variants with three or more changes are uncertain.

B1: LINE1-mini (parent)
chain: GGCAGAGCUCAACACAGCGUGGCAAAGUGGCUGUGGCUAGACUGCC

Variants of: B1
Experiment: self-cleavage, relative activity (ratio to wild type); higher = more cleavage; in vitro, sequencing; the parent is a self-cleaving ribozyme

Row | Variant | self-cleavage
1 | GGAAGAGUUCAACACUGCGUGGCAAAGUGGCUGUGGAUAGACUGCC | 0.35
2 | GGAAGAGUUAAACACAGCGUGGCAAAGUGGCUGUGGCUAGACUGCC | 0.04
3 | GGAAGAGUUCAAGACAGCGUGGCAAAGUGGCUGUGGCUAGACUGCC | 0.85
4 | GGAAGAGUUCAACAAAGCGUGCCAGAGUGGCUGUGGCUUGACUGCC | 0.69
5 | GGAAGAGUUCAACAGAGCGUGGAAAGGUGGAUCUGGCUAGACUGCC | 0.51
6 | GGAAGAGUUCAACACAGCGUGGUAAAGUCGCUGUGGCUAGACUGCC | 2.62
7 | GGAAGAGUUCAACACAAAGUGGCAAAGUGGCUCAGGCUAGACUGCC | 0.1
8 | GGAAGAGUUCAACACAGCAUGGCAAAGUGGCUGUGGCUAGACUGCC | 0.12
9 | GGAAGAGUUCAACACAGCGUGCCAAAGUGGCUGUGGCUAGACUUCC | 0.92
10 | GGAAGAGUCCAACACAGCGUGGCAAAGUCGCUGUGGCUAGACUGCC | 0.05
11 | GGAAGAGUUCAACACAGCGUGGCAAAGUGGCUGUGGCCAGACUGCU | 1.57
12 | GGAAGAGCUAAACUCAACUUGGCAAAGUGGCUGUGGCUAGACUGCC | 0.03
13 | GGAAGAGCUAAACACAGCGUGGCGAAGUGGCUGUGGCUAGAUUGCC | 0.02
14 | GGAAGAGCUAAAGACAGCGUGGCAAAGUGCCUGUGGCUAGACUGCC | 0.04
15 | GGAAGAGCUAAACACAGAGUGGCAAAGUGGCUGUGGCUAGACUGCC | 0.08
16 | GGAAGAGCUAAACACAGGGUGGCAAAGUGGCUGUGGCUAGACUGCC | 0.05
17 | GGAAGAGCUAAACACAGCGUGGAAAAGUGGCUGAGGCUAGGAUGCC | 0.02
18 | GGAAGAGCUAAACACAGCGUGGCAAAGUGGCUGUGGUUAGCCUGCC | 0.01
19 | GGAAGAGCUAAACACAGCAUGGCAAAGUGGCUGUGGCUAGACUGCC | 0.07

Row | Variant | self-cleavage
20 | GGAAGAGCUAAACACAGCGUGGCAAAGUGGCUGUGUCUAGACUGCC | 0.03
21 | GGAAGAGCUAAACACAGCGUGGCAAAGUGGCUGUGGCUAUACUGCC | 0.07
22 | GGAAGAGCUAAACACAGCGUGGCAAAGUGGCUGUGGCUAGACUCCC | 0.07
23 | GGAAGAGCUGCACACAGCGUGGCAAACUGGCUGUGGCUAGACUGCC | 0.03
24 | GGAAGAGCUGAUCACAGCGUGUCAACGUUGCUGUGGCUAGACUGCC | 0.01
25 | GGAAGAGCUGAACGCAGCGAGGCAAAGCUACUGUGGCGAGACCGCC | 0.01
26 | GGAAGAGCUGAACACAGCGUGGCAAAGUGGCUGUGGCUGGACUGCC | 0.01
27 | GGAAGAGCUGAAAACAGCGUGGCAAAGUGGCUGUGGCUAGACUGCC | 0.06
28 | GGAAGAGCUGAACACAGCGUGGCAAAGUGGCUGUGGCUAGAAUGCC | 0
29 | GGAAGAGCUGAACACAACGUGGCAAAGUGGCUGUGGCUAUACUGCA | 0.03
30 | GGAAGAGCUGAACACACAGUGGUAAAGUGGGUGUGGCUAGCCCGCC | 0
31 | GGAAGAGCUGAACACAGCGCGGCAAAGUGACUGUGGCUAGACUGCC | 0.06
32 | GGAAGAGCUGAACACAGCGGGGCAAAGUGGCUGUGGCUACACUGCC | 0.01
33 | GGAAGAGCUGAACACAGCGGGGCAAAGUGGCUGUGGCUAGACUUCC | 0.06
34 | GGAAGAGCUUUACACAGCGUGGCAAGGUGGCUGUAGCUAGACUGCC | 0.03
35 | GGAAGAGCUUAACCCAGCGUUGCAAAGGGGCUCUGGCUAGACUGGC | 0
36 | GGAAGAGCUUAACAAGGCGUGGCUAAGUGGCUGUGGCUAGACUGCC | 0.09
37 | GGAAGAGCUUAACAUAGAGUGGCAAAGUGGAUGUGGCAAGACUGUA | 0.1
38 | GGAAGAGCUUAACACAGCGUGGCAAAGUGGGUUUGGGUAGACUGCC | 0.07

Row | Variant | self-cleavage
39 | GGAAGAGCUUAACACACCGUGGCAAAGUGGGUGUGGCUCGACUGCC | 0.02
40 | GGAAGAGCUUAACACAUCGUGGCAAAGUGGCUGUGGCUAGACUGCC | 0.12
41 | GGAAGAGCUUAACACAGCGUUGCGAAGUGGCUGUGUCUAGACUGCC | 0.08
42 | GGAAGAGCUUAACACAGCGUGGCAAAGUGGCGGUGGCUAGAGUGCC | 0.07
43 | GGAAGAGCUCAAACCAGCGUGACGAAGUGGCUUUGGCUAGACUGCC | 0.1
44 | GGAAGAGCUCAAAGCAGCGUGGCAGAGUGGCUGUGGCUAGACUGCC | 0.5
45 | GGAAGAGCUCAAAACAGCGUGGAAAAGUGGCUGUGGCUAAACUGCC | 0.21
46 | GGAAGAGCUCAAAACAUCGUGGCAAAGUGGCUGUGGCUAGACUGCC | 0.26
47 | GGAAGAGCUCAAAACAGCAUGGCAAAGUGGCUGUGGCUAGACUGCC | 0.73
48 | GGAAGAGCUCAAAACAGCCUUGCAAAGGGGGUGUGGCUACACUGCC | 0.07
49 | GGAAGAGCUCAAAACAGCGUGGCAAAGUGGCUUUGGCUAGACUGCC | 0.07
50 | GGAAGAGCUCAAGACAGCGUGGCAGAGUUGCGGUGGCUAGACUGCC | 0.05
51 | GGAAGAGCUCAAGACAGCGUGGCAACCUGGCUGGGGCUAGACUGCC | 0.05
52 | GGAAGAGCUCAAGACAGAGUGCCAAAGUGGCUGUGGCUAGACUGCC | 0.06
53 | GGAAGAGCUCAAGACAGUGUGGUAAAGUGUCUGUGGCUCUAAUGCC | 0.02
54 | GGAAGAGCUCAAGACAGCGUGGGAAAGUGGUUGUGGCUAGACUGCC | 0.18
55 | GGAAGAGCUCAAGACAUUGUGGCAAAGUGGCUGUGGCUCGACUGCC | 0.01
56 | GGAAGAGCUCAAGACAGCGUUGCAAAGUGGCUGUGGCUAGACUGCC | 0.17
